# Test results: the supplement of paper PMC7826260
# The other results are listed elsewhere or left out. Each Rep nickase domain was tested in vitro on the same pool of single strands at 3 µM enzyme and 37 °C for 1 h; the strands have 90 letters, of which the middle is given. Values are log2 of uncut reads against the no-enzyme pool; strong cutting gives strongly negative numbers. There is no active / inactive call. Reads are scaled to the total; uncut strands gain when others are lost, and binding without cutting may add a little.
# How the values were obtained:
# Test in all cases: uncleaved DNA left, log2 of reads against the no-enzyme library (log2 ratio); higher = less cleavage (more negative = more Rep cleavage of the k-mer); sequences stand for … in CTCGTCCG…ACCGGAGA
# [1] = tested on: T1, Rep nickase domain of Muscovy duck circovirus
# T1 sequence (Rep 1-111, printed without the tag): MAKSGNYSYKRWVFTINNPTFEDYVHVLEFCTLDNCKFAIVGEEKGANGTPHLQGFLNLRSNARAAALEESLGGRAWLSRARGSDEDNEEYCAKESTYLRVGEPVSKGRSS
# Protocol: (§1)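 A pool of 90-nt single-stranded DNAs with seven random bases just before the constant AC of the nick site (name = the seven bases) was cut by 3 µM recombinant His6-SUMO-tagged Rep nickase domain (300 nM DNA, 50 mM HEPES pH 8.0, 50 mM NaCl, 1 mM MnCl2, 1 h, 37 °C, three replicates). Uncut DNA was amplified and sequenced.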
# [2] = tested on: T2, Rep nickase domain of banana bunchy top virus
# T2 sequence (Rep 1-94, printed without the tag): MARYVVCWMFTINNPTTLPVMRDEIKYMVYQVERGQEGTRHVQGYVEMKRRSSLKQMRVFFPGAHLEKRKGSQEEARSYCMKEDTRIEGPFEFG
# Protocol: as §1
# [3] = tested on: T3, Rep nickase domain of cabbage leaf curl virus
# T3 sequence (Rep 1-116, printed without the tag): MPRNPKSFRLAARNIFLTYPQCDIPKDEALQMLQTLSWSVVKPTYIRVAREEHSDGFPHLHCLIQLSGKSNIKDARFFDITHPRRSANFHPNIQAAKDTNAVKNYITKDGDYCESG
# Protocol: as §1
# [4] = tested on: T4, Rep nickase domain of chickpea chlorotic dwarf virus
# T4 sequence (Rep 1-124, printed without the tag): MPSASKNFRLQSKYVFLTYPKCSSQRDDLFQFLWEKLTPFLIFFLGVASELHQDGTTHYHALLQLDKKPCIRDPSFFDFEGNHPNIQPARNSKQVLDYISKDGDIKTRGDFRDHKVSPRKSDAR
# Protocol: as §1
# [5] = tested on: T5, Rep nickase domain of faba bean necrotic yellows virus
# T5 sequence (Rep 1-98, printed without the tag): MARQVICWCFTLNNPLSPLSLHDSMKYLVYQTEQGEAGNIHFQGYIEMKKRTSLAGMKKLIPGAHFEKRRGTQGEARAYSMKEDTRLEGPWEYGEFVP
# Protocol: as §1
# [6] = tested on: T6, Rep nickase domain of maize striate mosaic virus
# T6 sequence (Rep 1-117, printed without the tag): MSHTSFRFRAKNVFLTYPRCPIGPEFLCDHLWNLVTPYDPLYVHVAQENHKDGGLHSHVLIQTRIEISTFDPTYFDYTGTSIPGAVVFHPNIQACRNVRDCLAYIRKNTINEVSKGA
# Protocol: as §1
# [7] = tested on: T7, Rep nickase domain of porcine circovirus 2
# T7 sequence (Rep 2-116, printed without the tag): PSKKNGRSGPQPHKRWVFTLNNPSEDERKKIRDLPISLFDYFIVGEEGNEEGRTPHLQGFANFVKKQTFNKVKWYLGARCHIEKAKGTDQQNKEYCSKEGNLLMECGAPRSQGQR
# Protocol: as §1
# [8] = tested on: T8, Rep nickase domain of tomato golden mosaic virus
# T8 sequence (Rep 1-124, printed without the tag): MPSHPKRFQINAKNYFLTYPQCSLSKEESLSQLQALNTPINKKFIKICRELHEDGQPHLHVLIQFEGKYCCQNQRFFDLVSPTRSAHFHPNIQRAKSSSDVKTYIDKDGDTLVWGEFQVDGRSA
# Protocol: as §1
# [9] = tested on: T9, Rep nickase domain of tomato yellow leaf curl virus
# T9 sequence (Rep 1-136, printed without the tag): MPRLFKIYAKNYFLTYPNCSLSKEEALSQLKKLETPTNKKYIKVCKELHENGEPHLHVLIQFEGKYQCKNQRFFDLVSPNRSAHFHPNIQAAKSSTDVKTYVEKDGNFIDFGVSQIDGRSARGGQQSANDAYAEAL
# Protocol: as §1
# [10] = tested on: T10, Rep nickase domain of wheat dwarf virus
# T10 sequence (Rep 1-137, printed without the tag): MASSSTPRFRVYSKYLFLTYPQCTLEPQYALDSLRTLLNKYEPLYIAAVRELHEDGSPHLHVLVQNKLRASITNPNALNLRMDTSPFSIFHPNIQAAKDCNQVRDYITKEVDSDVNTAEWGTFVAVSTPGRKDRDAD
# Protocol: as §1
Sequence,uncleaved DNA left (log2) [1],uncleaved DNA left (log2) [2],uncleaved DNA left (log2) [3],uncleaved DNA left (log2) [4],uncleaved DNA left (log2) [5],uncleaved DNA left (log2) [6],uncleaved DNA left (log2) [7],uncleaved DNA left (log2) [8],uncleaved DNA left (log2) [9],uncleaved DNA left (log2) [10]
CTAGGGG,0.039,-0.099,0.197,0.613,-0.00448,0.242,0.25,0.0908,-0.0191,0.0604
AGCACAT,0.0903,0.172,0.218,0.841,0.0292,1.28,-0.0442,0.0209,0.0593,0.115
AGCGTCG,-0.125,0.0614,-0.101,0.149,-0.0498,0.329,0.0949,0.0653,0.0174,-0.0565
CCTACAG,0.0269,-0.0661,-1.05,-2.09,-0.00958,-1.19,0.181,-0.0791,0.00732,-0.161
TGGGGAT,-0.134,-0.025,0.268,1.59,-0.0713,1.84,0.0723,0.0133,-0.158,-0.0358
CGTTATA,-0.077,0.0836,-0.00778,-0.722,-0.0169,-0.0893,-0.0821,-0.0328,0.00631,0.0901
GTTGAGC,-0.048,-0.0157,0.0164,0.365,-0.107,-0.23,-0.0746,0.0112,0.0703,0.00609
TTATACA,-0.11,0.106,0.0729,-1.83,0.0661,0.101,-0.299,-0.0212,0.0627,0.0819
GGGGGGG,-0.0311,-0.078,0.331,0.877,0.0213,1.32,0.0185,0.0618,-0.0988,-0.0423
GTCCCGG,-0.0574,0.00512,0.453,1.23,-0.0388,2.06,0.184,0.139,-0.00643,0.0471
GCGACTA,-0.146,0.099,0.113,0.728,-0.0424,1.7,0.107,-0.00459,-0.146,0.00508
TACCACT,-0.0873,-0.103,-1.15,-3.17,0.00913,-0.915,-2.65,-0.0399,-0.0448,-0.19
CCGGTCG,-0.0451,-0.0456,0.171,1.3,-0.0476,1.25,0.0471,0.0713,-0.0662,-0.241
GCCTAAG,-0.177,-0.0636,-0.584,-0.478,-0.221,-1.2,0.147,-0.15,-0.113,-0.263
ATTGTTA,-0.0368,-0.0379,-0.187,-1.13,0.019,-0.688,-0.354,0.0053,0.0708,0.0508
TTGCACT,-0.13,-0.141,-0.503,-1.66,-0.0776,-1.07,-0.171,-0.233,-0.0481,-0.0968
GTCGAGT,0.0813,-0.0511,0.415,0.715,0.0234,1.43,0.115,0.0622,-0.0638,0.0291
TCACCCA,-0.0934,0.0589,0.0559,-1.21,-0.016,-0.392,-0.749,-0.133,-0.048,-0.0629
TTCGCTC,0.0772,-0.0102,0.141,-0.561,-0.184,-0.761,0.0228,-0.0434,-0.00578,-0.0755
AATCGTA,-0.00473,-0.04,-0.324,-1.7,0.0755,-0.985,-0.322,-0.0371,0.0438,-0.0653
ACAATAT,0.129,0.219,-0.0268,-1.09,0.0517,-0.617,0.059,0.159,-0.0161,0.132
ACAAGTA,0.0539,-0.00766,-0.246,-1.34,-0.00646,-0.891,-0.0909,0.0849,-0.0647,0.0118
TAGTTAC,0.0345,0.0215,0.114,-1.59,-0.0158,-0.233,-2.52,-0.0882,0.107,0.0505
GCGTTTC,0.015,0.0799,0.289,0.369,-0.0502,0.107,0.07,0.00607,0.0593,0.0881
AGCGGGA,0.112,0.195,0.185,0.675,0.146,1.09,0.0832,0.194,0.0952,0.219
TGGTACT,-1.57,-0.108,0.104,-0.776,-0.228,1.78,-3.66,-0.0907,0.0751,0.0116
AATCCCA,-0.079,0.0422,-0.102,-1.96,-0.0791,-0.285,-1.65,-0.15,-0.0175,-0.0283
GTGGAGA,0.105,0.0473,0.66,1.51,0.0206,1.78,0.16,0.203,0.125,0.209
GACCCTT,-0.0188,0.048,0.795,1.33,0.122,2.13,0.0419,-0.0167,-0.0755,0.22
GATGCGA,0.0717,-0.142,-0.697,0.258,-0.00445,-0.645,0.103,-0.0327,0.00737,-0.0923
